Where two headings read alike, the source gives them in different places.
Tests used:
[1] = biological target: T1, recombinant human glycosylated IL-17A (produced in-house in HEK EBNA cells) (human, UniProt Q16552 24-155, glycosylated (sites not given); biotinylated with NHS-PEO4-biotin in the lysate ELISA); test: cell-based or functional assay
[2] = biological target: T1, recombinant human glycosylated IL-17A …; test: SPR (BIAcore T200), 2000 RU glycosylated IL-17A amine-coupled on CM5 chip, monomeric fynomer injected
[3] = biological target: T1, recombinant human glycosylated IL-17A …; test: cell-based or functional assay; remark: listed apart in the source
recombinant human IL-6R [4] = biological target: T2, recombinant human IL-6R (human, UniProt P08887 20-365); test: SPR, binder captured by anti-human antibody on GLM chip, IL-6R as analyte; average of 6 experiments; column head prints nM, value taken as M
T2 construct: The sandwich ELISA used a His-tagged form; also called soluble IL-6R; His-tagged human IL-6R
T2 sequence: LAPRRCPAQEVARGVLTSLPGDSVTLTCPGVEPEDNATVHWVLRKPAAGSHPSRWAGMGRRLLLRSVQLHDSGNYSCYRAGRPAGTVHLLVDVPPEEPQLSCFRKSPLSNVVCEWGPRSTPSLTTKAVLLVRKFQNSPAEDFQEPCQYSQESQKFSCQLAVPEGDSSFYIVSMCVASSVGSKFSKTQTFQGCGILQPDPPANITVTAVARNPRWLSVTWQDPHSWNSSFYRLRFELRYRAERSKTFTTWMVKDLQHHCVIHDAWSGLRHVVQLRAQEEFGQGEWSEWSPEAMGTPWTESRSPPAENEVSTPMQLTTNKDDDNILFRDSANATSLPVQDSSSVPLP
Excerpt: (§1) To determine the affinity and kinetic parameters of FynomAb binding to human IL-17A and human IL-6R, an anti-human antibody was amine coupled to a GLM chip.

recombinant human IL-6R [5] = biological target: T2, recombinant human IL-6R; test: SPR (representative sensorgram with fit): antibody captured on an amine-coupled anti-human antibody (GLM chip), recombinant human IL-6R flowed as analyte
Excerpt: as §1

[6] = biological target: T3, human IL-6R on the surface of HEK Blue IL-6 cells (human, UniProt P08887 20-468); test: flow cytometry, simultaneous binding: drug titrated on HEK-Blue IL-6 cells (IL-6R+), cell-bound drug detected with biotinylated IL-17A and streptavidin-APC
T3 construct: HEK Blue IL-6 cells (Invivogen); also called cell surface IL-6R; HEK-Blue-IL6 cells (IL6R+)
T3 sequence: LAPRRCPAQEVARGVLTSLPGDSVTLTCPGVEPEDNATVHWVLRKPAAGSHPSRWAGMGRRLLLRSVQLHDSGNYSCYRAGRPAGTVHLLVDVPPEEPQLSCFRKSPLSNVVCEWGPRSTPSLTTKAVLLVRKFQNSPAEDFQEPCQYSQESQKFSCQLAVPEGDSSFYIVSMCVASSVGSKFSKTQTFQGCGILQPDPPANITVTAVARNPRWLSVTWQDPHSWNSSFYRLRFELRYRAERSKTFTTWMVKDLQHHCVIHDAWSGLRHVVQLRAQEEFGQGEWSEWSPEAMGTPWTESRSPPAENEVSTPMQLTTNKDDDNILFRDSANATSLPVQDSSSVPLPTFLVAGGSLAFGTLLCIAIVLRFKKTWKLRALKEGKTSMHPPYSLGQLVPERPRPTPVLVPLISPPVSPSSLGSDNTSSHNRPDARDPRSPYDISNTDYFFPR

[7] = biological target: T3, human IL-6R on the surface of HEK Blue …; test: flow cytometry: HEK-Blue IL-6 cells (IL-6R+), drug titrated about 0.005-300 nM, detected with anti-human IgG-Alexa488
[8] = biological target: T3, human IL-6R on the surface of HEK Blue …; test: flow cytometry, simultaneous binding: drug titrated on HEK-Blue IL-6 cells (IL-6R+), cell-bound drug detected with biotinylated IL-17A and streptavidin-APC; remark: listed apart in the source
recombinant human IL-17A [9] = biological target: T4, recombinant human IL-17A (human, UniProt Q16552 24-155, limits assumed); test: SPR (representative sensorgram with fit): antibody captured on an amine-coupled anti-human antibody (GLM chip), recombinant human IL-17A flowed as analyte
T4 construct: In the flow cytometry assay it was biotinylated; also called soluble IL-17A
Excerpt: as §1

recombinant human IL-17A [10] = biological target: T4, recombinant human IL-17A; test: dual-binding sandwich ELISA: human IL-17A coated, FynomAb titrated 50-0.0032 nM in PBS (day 0), His-tagged human IL-6R added, anti-His-HRP
recombinant human IL-17A [11] = biological target: T4, recombinant human IL-17A; test: SPR, binder captured by anti-human antibody on GLM chip, IL-17A as analyte; average of 5 experiments
Excerpt: as §1

[12] = biological target: T3, human IL-6R on the surface of HEK Blue …; test: flow cytometry: HEK-Blue IL-6 cells (IL-6R+), drug titrated about 0.005-300 nM, detected with anti-human IgG-Alexa488; remark: listed apart in the source
recombinant human IL-6R [13] = biological target: T2, recombinant human IL-6R; test: SPR, binder captured by anti-human antibody on GLM chip, IL-6R as analyte; average of 6 experiments
Excerpt: as §1

recombinant human IL-17A [14] = biological target: T4, recombinant human IL-17A; test: SPR, binder captured by anti-human antibody on GLM chip, IL-17A as analyte; average of 5 experiments; column head prints nM, value taken as M
Excerpt: as §1

T4 sequence (Q16552 24-155 limits assumed): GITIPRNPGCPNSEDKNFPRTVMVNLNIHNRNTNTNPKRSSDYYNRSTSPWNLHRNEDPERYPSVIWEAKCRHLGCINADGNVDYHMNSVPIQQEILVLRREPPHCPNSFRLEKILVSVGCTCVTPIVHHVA

B1: 11L10-A05 (designed binder)
chain: GVTLFVALYDYSSRGVLDLSFHKGEKFQILSTHEYEDWWEARSLTTGETGYIPSNYVAPVDSIQ
notes: Fyn SH3-derived fynomer
For B1, which “IC50 value, IL-6 production by human dermal fibroblasts stimulated with glycosylated IL-17A and TNFα” value (from here on “IC50 value, IL-6 production”) [1] is on record?
Its value is 28 nM.

And the Kd [2]?
The Kd was 7 nM.

B2: 11L11-A09 (designed binder)
chain: GVTLFVALYDYSRKSNLDLSFHKGEKFQILSTHEYEDWWEARSLTTGETGYIPSNYVAPVDSIQ
notes: Fyn SH3-derived fynomer
For B2, which Kd [2] is on record?
Its Kd is 24 nM.

And the “IC50 value, IL-6 production” value [3]?
Its value is 66 nM.

B3: 11L9-C09 (designed binder)
chain: GVTLFVALYDYESVSWSDLSFHKGEKFQILSTHEYEDWWEARSLTTGETGYIPSNYVAPVDSIQ
notes: Fyn SH3-derived fynomer
Which results are given for B3?
IC50 value, IL-6 production by human dermal fibroblasts stimulated with glycosylated IL-17A and TNFα [1]: 32 nM; Kd [2]: 11 nM

B4: 11L5-B06 (designed binder)
chain: GVTLFVALYDYSARGQLDLSFHKGEKFQILSTHEYEDWWEARSLTTGETGYIPSNYVAPVDSIQ
notes: Fyn SH3-derived fynomer
B4 was tested. Which “IC50 value, IL-6 production” value [1] did it give?
Its value is 43 nM.

And the Kd [2]?
The Kd was 12 nM.

B5: 11L0-C06 (designed binder)
chain: GVTLFVALYDYKQKGHLDLSFHKGEKFQILSTHEYEDWWEARSLTTGETGYIPSNYVAPVDSIQ
notes: Fyn SH3-derived fynomer; also called 11L0-C6
How did the “IC50 value, IL-6 production” value [1] turn out when B5 was run?
Its value is 35 nM.

What about the Kd [2] of the same binder?
The Kd was 7 nM.

B6: 1L3-B09 (designed binder)
chain: GVTLFVALYDYANHGNRDLSFHKGEKFQILSTHEYEDWWEARSLTTGETGYIPSNYVAPVDSIQ
notes: Fyn SH3-derived fynomer; also called 1L3-B9
Which results are given for B6?
IC50 value, IL-6 production by human dermal fibroblasts stimulated with glycosylated IL-17A and TNFα [1]: 300 nM; Kd [2]: 245 nM

B7: 11L6-F03 (designed binder)
chain: GVTLFVALYDYDKLSALDLSFHKGEKFQILSTHEYEDWWEARSLTTGETGYIPSNYVAPVDSIQ
notes: Fyn SH3-derived fynomer
Which results are given for B7?
IC50 value, IL-6 production by human dermal fibroblasts stimulated with glycosylated IL-17A and TNFα [1]: 63 nM; Kd [2]: 11 nM

B8: COVA802 (bispecific antibody, human IgG1, kappa)
heavy: QVQLQESGPGLVRPSQTLSLTCTVSGYSITSDHAWSWVRQPPGRGLEWIGYISYSGITTYNPSLKSRVTMLRDTSKNQFSLRLSSVTAADTAVYYCARSLARTTAMDYWGQGSLVTVSS[sequence of human IgG1 constant region omitted]
light: DIQMTQSPSSLSASVGDRVTITCRASQDISSYLNWYQQKPGKAPKLLIYYTSRLHSGVPSRFSGSGSGTDFTFTISSLQPEDIATYYCQQGNTLPYTFGQGTKVEIKRTVAAPSVFIFPPSDEQLKSGTASVVCLLNNFYPREAKVQWKVDNALQSGNSQESVTEQDSKDSTYSLSSTLTLSKADYEKHKVYACEVTHQGLSSPVTKSFNRGECGGGGSGGGGSGGGGSGVTLFVALYDYKQKGHLDLSFHKGEKFQILSTHEYEDWWEARSLTTGETGYIPSNYVAPVDSIQ
notes: made in CHO cells; also called 802 in-House
For B8, which Kd (recombinant human IL-6R [4]) is on record?
Its Kd is 0.395 nM.

What about the Kd (recombinant human IL-6R [5]) of the same binder?
The Kd was 0.351 nM.

And the “EC50 (read off the curve)” value [6]?
Its value is roughly 0.8 nM.

What about the “EC50 (read off the curve)” value [7] of the same binder?
Its value is roughly 0.7 nM.

B9: COVA803 (bispecific antibody, human IgG1, kappa)
heavy: QVQLQESGPGLVRPSQTLSLTCTVSGYSITSDHAWSWVRQPPGRGLEWIGYISYSGITTYNPSLKSRVTMLRDTSKNQFSLRLSSVTAADTAVYYCARSLARTTAMDYWGQGSLVTVSSASTKGPSVFPLAPSSKSTSGGTAALGCLVKDYFPEPVTVSWNSGALTSGVHTFPAVLQSSGLYSLSSVVTVPSSSLGTQTYICNVNHKPSNTKVDKKV[sequence of human IgG1 Fc omitted]GGGSGGGGSGGGGSGVTLFVALYDYSARGQLDLSFHKGEKFQILSTHEYEDWWEARSLTTGETGYIPSNYVAPVDSIQ
light: DIQMTQSPSSLSASVGDRVTITCRASQDISSYLNWYQQKPGKAPKLLIYYTSRLHSGVPSRFSGSGSGTDFTFTISSLQPEDIATYYCQQGNTLPYTFGQGTKVEIKRTVAAPSVFIFPPSDEQLKSGTASVVCLLNNFYPREAKVQWKVDNALQSGNSQESVTEQDSKDSTYSLSSTLTLSKADYEKHKVYACEVTHQGLSSPVTKSFNRGEC
notes: made in CHO cells; also called 803 in-house
B9 was tested. Which Kd (recombinant human IL-6R [4]) did it give?
Its Kd is 0.604 nM.

What about the “EC50 (read off the curve)” value [8] of the same binder?
The value was roughly 1 nM.

And the Kd (recombinant human IL-17A [9])?
The Kd was 0.294 nM.

What about the koff (recombinant human IL-17A [9]) of the same binder?
Its koff is 0.00154 s⁻¹.

And the kon (recombinant human IL-17A [9])?
Its kon is 5.22e+06 M⁻¹ s⁻¹.

What about the “EC50 (read off the curve)” value (recombinant human IL-17A [10]) of the same binder?
Its value is roughly 3 nM.

What about the koff (recombinant human IL-17A [11]) of the same binder?
The koff was 0.000357 s⁻¹.

What about the kon (recombinant human IL-17A [11]) of the same binder?
Its kon is 4.96e+06 M⁻¹ s⁻¹.

And the Kd (recombinant human IL-6R [5])?
The Kd was 1.08 nM.

What about the koff (recombinant human IL-6R [5]) of the same binder?
Its koff is 0.00028 s⁻¹.

And the kon (recombinant human IL-6R [5])?
The kon was 260000 M⁻¹ s⁻¹.

What about the “EC50 (read off the curve)” value [12] of the same binder?
The value was roughly 1 nM.

And the koff (recombinant human IL-6R [13])?
The koff was 0.000219 s⁻¹.

And the kon (recombinant human IL-6R [13])?
The kon was 363000 M⁻¹ s⁻¹.

And the Kd (recombinant human IL-17A [14])?
The Kd was 0.0689 nM.

From patent publication US20170081412A1 (MITSUBISHI TANABE PHARMA, published 2017)
